Results published in the supplement of paper PMC10126150.
Values marked as one replicate rest on one cluster of the flow cell; about a third of the high ones do not repeat.

Tested on: ATP
Test: switch fluorescence ratio, 500 uM ATP over buffer (Cy3 cluster intensity, sum of 5 cycles each) (fold (ratio)); higher = stronger signal-on switching upon ATP binding; sequences stand for … in TCGTCGGCAGCGTCAGATGTGTATAAGAGACAGTTTTTTTTTTTTTTTTTTTTTTTTT…TC
Conditions: aptamer strand: ATP DNA aptamer (quencher-CACCTGGGGGAGTATTGCGGAGGAAGG + anchor), 100 nM annealed; ATP concentration: 500 uM; one replicate
Procedure, shortened: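 After annealing to 100 nM quencher-labelled ATP aptamer, Cy3-labelled switching-strand clusters on a modified Illumina MiSeq flow-cell were imaged in selection buffer. A second image followed after 15 min with 500 uM ATP at 22 °C, and five such buffer/ATP cycles were done, each separated by NaOH stripping and re-annealing. The fluorescence ratio, averaged per switch-domain sequence, is summed target-cycle over summed buffer-cycle Cy3 intensity per cluster, with clusters outside 100-1000 RFU excluded.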
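Further: ATP exposure 15 min at 22 °C before imaging.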

Sequence	switch fluorescence ratio
TGGGAGACGT	0.936
AAAAAAAGTG	1.03
TAAAGAATCT	1.06
GATCTGATAC	1.2
TTCTCAGCTT	1.01
TAGCATTACT	4.7
CGCTTGTGGG	1.04
GGATTCTAA	0.967
CCCCAGTAGT	2.35
TCGGCCACGA	0.99
ACTTTAGCTC	1.15
ACTCTTAGCT	0.963
GTAAGCTGGT	1.73
GGCGGATGTG	0.967
TGGTTTACT	1.06
GATCGCGGGC	1.14
GTGATTCTTT	1.01
CAAGCGGCAA	1.47
TCTATGCCT	1.04
TGGCCACTCT	0.997
TGATAGAACC	1.04
CGCGCGCCTA	0.988
GTACACGCCC	1.19
ATGATTATTT	0.983
GGAGGGATAC	3.74
TCGGATTGG	0.999

Sequence	switch fluorescence ratio
TTTCTTCAAC	1.14
GTGTATACAG	0.968
ATTGCAGTAG	1.06
CGGAACCCAG	0.954
CCGGGATAAG	1.01
TGCCTGATGG	1.01
TTATAAGCCG	1.01
GTCACTATAG	0.983
TAGCAAGGCA	1.07
CTATTCTAGC	1.09
CAGTAGGTGC	1.11
ATGTACGGC	1.08
TAAAAGGCCG	0.973
AAGAGTGACC	1.03
AGCATTGTAG	1.05
ATTGCGTCAC	0.989
ACCGACTTCT	0.982
TATTGCGCGA	1.1
GTGTGTTACA	0.967
CTAGGTCCAA	1.07
ACGTGATAAA	1.05
TTTTCACATT	1.01
GGGTTTATTC	1.01
TTTGTACAG	1.02
ACGAAAGAGG	1.04
ACGGTTATAG	1.03

Sequence	switch fluorescence ratio
AGGACGGGAA	1.02
CGTTTCTGAC	0.986
CTATGCGATG	1.06
GCTACTTCGG	0.953
TCTTCCACTA	1.08
AACCTCCAAG	1.18
GCGTTCGCTA	1.06
CGTCTGACCC	1.01
ATAGGCATAA	1.04
GGTCACACAT	0.991
CATAGAGTTC	0.948
TAGTTCCAGG	1.27
TCATGCTATA	0.977
TCATGGAG	0.977
ATCTTTCTAC	1.02
TAGCGGCGGG	1
TTCCATCGCT	1.49
GACCTCGCTC	1.19
TGGTATCTAT	1.05
CGGGTAGACA	0.944
CGCCTTTCTT	0.998
TCGGTTTCT	0.985
CTTGTTACTG	1
ATGTGACATG	1.27
CATATTAGTT	0.993
CTCTACATTA	1.07

Sequence	switch fluorescence ratio
ACTGACTGCA	1.34
AAGATAGGAT	1.01
AGACTCCAGA	1.06
ATTGGAGTTT	0.984
TTATCAGAGA	0.973
GAAAAAGTTT	1.04
GTTCTAGAGT	1.05
CTCGATTTAG	1.01
AACTCACTTC	1.13
ACCGGCAGGC	1.77
GTTGGATACT	0.997
GTTTTCCTCA	1.65
AGGATAATAC	1.35
ACTACGTGTC	1.25
GGGCCTTTGA	1.04
CGAACGTGCG	1.02
TCGCTCAAAA	0.993
TGCAGGTTTG	0.984
ACTCCTTCAA	2.33
ACATACTAAG	1.34
GGTTCTCGGG	0.977
TATACTTCGA	0.961
AAGTTACTTC	1.03
GTTTGCGTAC	1.11
CCTTGCACA	3.14
AAGATCGAGG	1.03

Sequence	switch fluorescence ratio
GAACTCCGGA	1.55
CTGATGCCTT	0.99
GTGAGGATGT	1.06
GGATCTTTTG	1.02
CCAACAAACC	1.16
AGGTTGCCAT	0.973
TGCCTTTTTG	1.01
CGGAATGGGT	0.99
ATTAGTTGAA	0.979
AATTCAATCG	1.02
AAAAATCGTA	0.985
TTAAGCGACA	0.999
TGCTGAAG	1.03
GCTGATGATG	0.998
CTGCCTCTGC	1.79
TGACTAGCGG	0.931
AAACTCCTGA	1.01
TGTGTGGGAA	1.03
TAAGGCCATT	0.999
TTTTGAGCGT	0.989
GGGGGATC	1.01
CTTCATTAGC	1.11
TCCTGTTGTA	0.976
GATTACACGG	1.06
AAATGCGGTC	1.01
GGGGAGTAAG	0.996

Sequence	switch fluorescence ratio
TTCTTGCGGT	0.969
CGACTATTGA	0.986
TCGACCGTAT	0.968
AGGCTAGTAT	1
ACCTTCGGTC	1.07
CCAAGTCAGC	1.24
AGCGGAAGG	1.02
GTGGCTCCGT	0.988
AAGCAATGCT	2.61
GCTGAGCCAG	0.998
TGGCTAAAGA	0.976
ATCCTTTGGT	0.956
GCAGCGAGGA	1.2
TTCTAATAGG	1.04
AATTTTCCAG	0.968
AGACACTCAT	1.04
GCTTCAGGTA	1.02
GTACATGGTA	1.02
TTATCCCTGT	1.04
AAGGTTAAAT	0.978
CCAGACAATT	1.01
TTTCCCACCG	1.44
TGAGATGAGA	0.983
ACATTGTGGG	1
AAACTGGTCT	0.966
TCTGTAACTC	1.05

Sequence	switch fluorescence ratio
GAACTAAGGC	1.12
GAGTAACTTT	0.996
TTTAGAAAGA	1.02
AGCGGGGTGC	1.08
GTCTAAGATC	1.04
TCAGTCAGAA	1.01
ATTCACCTCC	1.29
ACTGTCTGC	0.993
ACATGCCAAG	1.05
AGTACGGGTG	1.1
AAGATTCCTG	1.03
ATGTTCAAA	0.998
ATCGTCGAC	1
GATATTTGCT	0.993
CAGGTTGAAA	0.982
CTGGATTAGA	1.05
CACTTAAATT	1.05
CTTGGTACCG	0.943
AGTCAGACG	0.972
TTAGAGAAGC	1.01
AAAAACTTCT	1.08
ATCTGCGCCA	1.14
GTCGCTAAAA	1.05
GGCCAGCACT	0.991
GCGACGGCTT	1.05
CAGGTCGCAC	0.999

Sequence	switch fluorescence ratio
GAGTTCACGA	1.11
CATATAGCCT	1.07
CTTTCCCATT	1.03
TTAAGACAT	1.02
CAGGGTACAT	1
CCAGCGGCGT	0.983
CGGCAGGCGA	1.04
TAAGAAGGCC	0.934
ATTAGAACTC	0.96
CGCTGGGGTC	1.02
CCTAAATGAC	1.2
ATCTGGTGC	1.19
TAATGTTCAT	1.02
TGGATCGGGT	0.951
AAAGGGTT	1.07
TTAGAAGTCC	1.04
AGGCATGTGG	0.971
CCCTGAGACC	0.986
ACAATGCAGG	1.05
